# In publication PMC12350791:
# Biological target: Elongation factor 1-alpha 2 (UniProt Q05639)
# Assay: cross-link between two proteins; cross-linking mass spectrometry
# Chain of Elongation factor 1-gamma (chain, as listed by the source): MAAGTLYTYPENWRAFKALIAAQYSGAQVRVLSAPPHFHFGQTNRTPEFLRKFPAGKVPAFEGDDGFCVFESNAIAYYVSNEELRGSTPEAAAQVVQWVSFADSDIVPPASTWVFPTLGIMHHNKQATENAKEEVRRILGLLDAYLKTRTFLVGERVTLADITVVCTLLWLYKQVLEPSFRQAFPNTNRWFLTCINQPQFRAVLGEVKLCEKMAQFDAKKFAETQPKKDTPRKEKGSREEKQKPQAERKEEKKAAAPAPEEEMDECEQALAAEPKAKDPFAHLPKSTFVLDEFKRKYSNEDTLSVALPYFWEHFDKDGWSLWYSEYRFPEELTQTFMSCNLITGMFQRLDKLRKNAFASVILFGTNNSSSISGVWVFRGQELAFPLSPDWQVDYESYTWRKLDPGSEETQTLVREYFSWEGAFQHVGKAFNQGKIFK
# Chain of UniProt Q05639 (Q05639 whole entry): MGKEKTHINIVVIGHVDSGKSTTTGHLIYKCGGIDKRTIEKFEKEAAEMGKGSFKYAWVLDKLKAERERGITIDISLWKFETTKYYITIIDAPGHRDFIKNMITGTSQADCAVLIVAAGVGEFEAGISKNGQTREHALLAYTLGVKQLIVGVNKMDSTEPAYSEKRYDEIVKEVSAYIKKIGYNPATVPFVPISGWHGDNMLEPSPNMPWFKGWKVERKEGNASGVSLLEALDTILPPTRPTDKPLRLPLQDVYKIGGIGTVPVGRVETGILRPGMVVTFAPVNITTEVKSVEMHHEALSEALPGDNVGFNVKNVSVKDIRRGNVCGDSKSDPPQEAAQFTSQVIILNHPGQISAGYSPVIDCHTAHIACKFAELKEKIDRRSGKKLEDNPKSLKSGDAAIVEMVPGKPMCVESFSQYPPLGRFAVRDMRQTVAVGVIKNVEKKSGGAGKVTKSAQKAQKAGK
substance,measurement,value
Elongation factor 1-gamma,listed as a hit,yes
